PubChem BioAssay AID488969 (Vanderbilt High Throughput Screening Facility, 2010)
The full ranking holds about 110,000 compounds; the median of “z-score” is about -0.1, and the highest 2% start at about 2. The list shows a part of the results.

These molecules were tested against Metabotropic glutamate receptor 8 (Rattus norvegicus) (UniProt P70579) (assay: rat mGluR8 modulators via GIRK flux, primary screen, cell-based, thallium flux, HTS (AID 488969)). Conditions: HEK293 rat mGluR8, GIRK (G protein-gated inwardly rectifying potassium channel) thallium flux, FluoZin2; at 10 µM; stronger effect = higher value.
UniProt P70579, sequence (P70579 whole entry, looked up): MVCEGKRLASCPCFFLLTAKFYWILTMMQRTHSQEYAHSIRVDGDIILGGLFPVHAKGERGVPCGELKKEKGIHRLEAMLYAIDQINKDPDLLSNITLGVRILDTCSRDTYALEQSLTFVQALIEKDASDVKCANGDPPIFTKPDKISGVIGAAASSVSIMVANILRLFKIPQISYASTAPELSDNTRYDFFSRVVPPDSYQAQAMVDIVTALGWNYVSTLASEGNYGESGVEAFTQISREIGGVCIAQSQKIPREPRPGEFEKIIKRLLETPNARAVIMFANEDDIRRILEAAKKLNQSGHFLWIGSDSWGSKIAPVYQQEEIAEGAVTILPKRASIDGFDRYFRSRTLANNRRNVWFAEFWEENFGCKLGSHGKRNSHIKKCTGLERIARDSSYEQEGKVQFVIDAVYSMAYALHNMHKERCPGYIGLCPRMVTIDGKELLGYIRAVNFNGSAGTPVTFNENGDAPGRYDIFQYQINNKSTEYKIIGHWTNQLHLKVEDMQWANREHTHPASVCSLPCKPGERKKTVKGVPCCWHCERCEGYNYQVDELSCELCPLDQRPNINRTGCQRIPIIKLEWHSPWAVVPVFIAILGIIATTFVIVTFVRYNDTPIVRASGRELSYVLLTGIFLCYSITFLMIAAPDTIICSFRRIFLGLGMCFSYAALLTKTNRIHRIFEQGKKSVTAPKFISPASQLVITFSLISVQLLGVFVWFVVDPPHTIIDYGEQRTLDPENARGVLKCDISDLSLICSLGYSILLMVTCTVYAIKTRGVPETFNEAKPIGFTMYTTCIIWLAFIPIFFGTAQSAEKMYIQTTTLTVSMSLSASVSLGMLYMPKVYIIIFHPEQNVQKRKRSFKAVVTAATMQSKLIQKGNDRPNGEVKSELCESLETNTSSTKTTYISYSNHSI

SMILES | z-score
Cc1ccc(N2C(=O)NC(=O)C(CCc3ccccn3)(Cc3cccc(Cl)c3Cl)C2=O)cc1 (configuration not stated) | -0.463
CCCCOP(=O)(OCCCC)/C(C#N)=C(/C)O | 0.459
Cc1nc(Cl)sc1C(=O)Nc1ccc2ccccc2c1 | 0.257
COc1ccc(-n2c(SC)nc3ccccc3c2=O)cc1 | -0.741
CCCC1(CCC)C(=O)NC(=Nc2ccccc2)NC1=O | 0.112
O=C(COC(=O)Cc1ccccc1)Nc1cc(S(=O)(=O)N2CCOCC2)ccc1N1CCCC1 | -0.156
Oc1ccc(/C=N/NP(=S)(c2ccccc2)c2ccccc2)cc1O | 1.01
COc1ccccc1CCNC1CCC(C(C)(C)C)CC1 (configuration not stated) | -0.494
COc1cc(CN2CC3CC(C2)c2cccc(=O)n2C3)cc(OC)c1OC (configuration not stated) | -1.25
CN1CCN(CCC(C#N)(c2ccccc2)c2ccccc2)CC1 | 0.18
CCOP(=S)(NN(Cc1ccccc1)C(=O)c1ccccc1)OCC | -0.0699
O=C(NCCCN1CCOCC1)C(Cl)(Cl)Cl | -0.223
N=C1c2ccccc2CN1NC(=O)c1ccc(F)cc1 | -0.146
O=c1c2ccccc2nc(N2CCCC2)n1-c1ccc(Cl)cc1 | -0.906
O=C(CN1CCOCC1)c1ccc2cc[nH]c2c1 | 0.312
CCn1c(=N)n(Cc2ccccc2F)c2ccccc21 | 0.599
N=C1c2ccccc2CN1NC(=O)c1ccc(Cl)cc1 | -0.179
O=C1NC(=O)N(c2ccccc2)C(=O)/C1=C\c1ccc2c3c(cccc13)CC2 | 0.108
O=C(Nc1ccc(F)cc1)N1CC2CC(C1)c1cccc(=O)n1C2 (configuration not stated) | -0.635
COc1ccc(-n2c(Cc3cccc([N+](=O)[O-])c3)nc3ccccc3c2=O)cc1 | -0.326
O=C(COc1ccccc1)N1CCN(CC(O)COc2ccccc2)CC1 (configuration not stated) | -0.428
O=C1C2CCN(CC2)[C@@H]1Cc1ccc2ccccc2c1O | 0.657
O=C(OCC(=O)c1ccc([N+](=O)[O-])cc1)/C(=C\c1ccc(Cl)cc1)NC(=O)c1ccccc1 | -0.361

SMILES | z-score
CCOc1cc2[nH]c(=S)n(CCCC(=O)N3CCC4(CC3)OCCO4)c(=O)c2cc1OCC | -0.747
O=C(Cc1ccccc1)N1CCN(Cc2cccnc2)CC1 | 0.0634
O=S(=O)(c1ccc(Cl)cc1)N1CN2CCN(C2)C1 | -0.171
C=CCN(CC=C)Cc1c[nH]c2ccccc12 | 1.43
C(#CCN1CCOCC1)COC/C=C/c1ccccc1 | 0.236
COc1ccc(CCNC(=O)COC(=O)Cc2ccccc2)cc1 | -0.0964
Cn1c(O)c(C=NCCN2CCN(C(=O)c3ccccc3)CC2)c(=O)n(C)c1=O | 0.641
CN(C)CC1CSCCC1(O)c1ccccc1Cl (configuration not stated) | 0.0287
N#CCCn1cc(C(=O)Nc2ccc([N+](=O)[O-])cc2)c(-c2ccc3c(c2)OCCO3)n1 | -0.442
Cc1cc(N2C(=O)C3CCCN3C2c2cccc(Cl)c2)no1 (configuration not stated) | -0.0336
CC1CCCN(C(=O)c2ccc(N3CC4CC(C3)c3cccc(=O)n3C4)c([N+](=O)[O-])c2)C1 (configuration not stated) | -0.848
O=C1CN=C(c2ccccc2)c2ccccc2N1Cc1ccc(C(F)(F)F)cc1 | 0.646
c1ccc(C2CC3CC(c4ccco4)N2O3)cc1 (configuration not stated) | -0.27
O=C(CN1C2CCC1CC(O)(c1cccnc1)C2)Nc1ccc2c(c1)OCO2 (configuration not stated) | -0.287
Cc1cc(C=C2C(=O)N(C)C(=S)N(C)C2=O)c(C)n1C1CCCCC1 | -0.45
O=C(NC1(C(F)(F)F)Oc2ccc(Cl)cc2O1)N1CCC2(CC1)OCCO2 (configuration not stated) | 0.113
CC[N+](C)(CC)CCCOC(=O)C(O)(c1ccccc1)C1CCCCC1 (configuration not stated) | -0.291
COc1ccccc1-n1c(O)c(C=NCc2ccc3c(c2)OCO3)c(=O)[nH]c1=O | -0.171
O=c1[nH]c(=S)n(CCC2=CCCCC2)c(O)c1C=NC1CCN(Cc2ccccc2)CC1 | -0.0226
O=C(c1cc(=O)[nH]c2ccc(Br)cc12)N1CCC2(CC1)OCCO2 | -0.021
CCC(=NCCO)c1c(O)n(-c2ccccc2)c(=O)[nH]c1=O | -0.323
CN1C2CCC1CC(OC(=O)c1ccc(Cl)cc1)C2 (configuration not stated) | 0.354
COC(=O)C(c1ccccc1)N1CCCCCC1 (configuration not stated) | -0.607

SMILES | z-score
CC(=O)c1ccccc1NC(=O)C1C2CCC(O2)C1C(=O)O (configuration not stated) | 0.0608
CCCCCn1c(=O)c(C(=O)Nc2c(C)n(C)n(-c3ccccc3)c2=O)c(O)c2ccccc21 | -0.252
O=C(Cn1cc(C(=O)c2ccccc2)c2ccccc21)NCc1ccco1 | -0.643
CCOC(=O)c1sc(/N=C/c2c(O)n(-c3cccc(C)c3)c(=O)[nH]c2=O)c(C#N)c1C | -0.627
CCOC(=O)C1C(=O)NC23CCCC2C1c1ccccc1O3 (configuration not stated) | -1.02
COC(=O)C[C@]1(C(=O)OC)CN(C#N)N(c2ccc(Cl)cc2)C12c1ccccc1-c1ccccc12 | -0.826
Cc1nn(-c2ccccc2)c2c1C(c1ccc3c(c1)OCO3)SCC(=O)N2 (configuration not stated) | -0.525
S=C(c1ccc(Cl)cc1)N1CCOCC1 | -0.144
CCC[N+]12CCC(CC1)C(=C(c1ccccc1)c1ccccc1)C2 | -0.189
O=C(C1c2ccccc2C(=O)N2CCc3ccccc3C12)N1CCC2(CC1)OCCO2 (configuration not stated) | -0.142
Cc1ccc(-n2c(-c3ccc([N+](=O)[O-])cc3)nc3ccccc3c2=O)cc1 | -0.412
CN1CCN(c2ccc([N+](=O)[O-])c(N)c2)CC1 | 0.0155
CCCC(=O)NC(Oc1ccccc1Cl)C(Cl)(Cl)Cl (configuration not stated) | -0.34
CCCCn1c(O)c(C(C)=NCCCN(C)C)c(=O)[nH]c1=O | 0.319
COC(=O)N(c1ccc(OC)cc1)P1(=S)OCCC(C)O1 (configuration not stated) | -0.203
CCC(=NCCc1c[nH]c2ccccc12)c1c(O)n(C)c(=O)n(C)c1=O | -0.466
CCCc1nc2ccccc2c(=O)n1-c1ccccc1OC | -0.658
COc1ccc(-c2cc(C(F)(F)F)n3nc(C(=O)N4CCC5(CC4)OCCO5)cc3n2)cc1OC | -0.318
CC1CC(NC(=O)C2C3CCC(O3)C2C(=O)O)CC(C)(C)C1 (configuration not stated) | 0.764
Cc1ccc(OCC(=O)NCCN2CCN(C(=O)COc3ccc(C)cc3)CC2)cc1 | 0.02
CCc1ccc(N2C(=O)NC(=O)/C(=C/c3cccn3CCOc3ccc(C)cc3)C2=O)cc1 | -0.287
O=C(c1cccn2c(=O)c3ccc(Cl)cc3nc12)N1CCC2(CC1)OCCO2 | -0.0942
OC(CNC1CCCCC1)c1ccccc1 (configuration not stated) | 0.303

SMILES | z-score
CC12CN3CN(C1)CC(C)(C3)C2=NO | -0.219
O=C1/C(=C\c2cc3c(cc2Cl)OCO3)N2CCC1CC2 | -0.362
CSc1ccc(CNC2CN3CCC2CC3)cc1 (configuration not stated) | 1.16
Oc1cccc(/C=N/NP(=S)(c2ccccc2)c2ccccc2)c1 | -0.0771
COc1ccc(-c2csc(NC(=O)COC(=O)Cc3ccccc3)n2)cc1OC | -0.152
N=C1C(c2ccccc2)=C(O)CN1Cc1ccco1 | -0.712
COc1ccc(C(C)=O)cc1CC(C(=O)c1ccc(C)cc1)N(C)C (configuration not stated) | -0.459
CC(=O)OC1N=C(c2ccccc2)c2cc(Br)ccc2NC1=O (configuration not stated) | -0.0814
COc1cccc(N2C(=O)NC(=O)/C(=C/c3ccc4c5c(cccc35)CC4)C2=O)c1 | -0.126
Cc1ccc(NC(=O)CSc2nnc([C@@H](N)Cc3c[nH]c4ccccc34)o2)c(C)c1 | -0.219
O=C(CCn1c(=O)oc2ccccc21)N1CCC2(CC1)OCCO2 | 0.458
CC(C)(C)c1ccc(O)c(CN2CCN(c3ccccc3)CC2)c1 | -0.143
CCn1c(O)c(C=Nc2ccc(S(N)(=O)=O)cc2)c(=O)n(CC)c1=S | 0.323
CNC(C(=O)c1ccccc1)C(OC(C)C)c1ccc(Cl)cc1 (configuration not stated) | 0.281
Cc1ccc(N(C)C(=O)Oc2cccc3ccc(C)nc23)cc1 | 0.0954
O=C1NC(=O)C(=Cc2cn(CCOc3ccc4c(c3)OCO4)c3ccccc23)C(=O)N1 | -0.212
C/C(=C\c1ccc(N(C)C)cc1)[N+](=O)[O-] | -0.153
Oc1ccc(CC2CC3CCN2CC3)cc1O (configuration not stated) | 0.716
Cc1ccc(C)c(C2(O)CC(C)N(C)CC2C)c1 (configuration not stated) | 0.0958
CC1CN=C(Nc2ccc(N(C)C)cc2)S1 (configuration not stated) | 0.0819
CN(C)CC#CCC(O)(c1ccccc1)C1CCCC1 (configuration not stated) | -0.183
CCN(CC)c1ccc(/C=C2/C(=O)NC(=O)N(CC3CCCO3)C2=O)cc1 (configuration not stated) | 0.01
CN(C)CC1CSCCC1(O)c1ccccc1 (configuration not stated) | 0.409

SMILES | z-score
CC1(C)C(C(=O)NN2C(=O)c3ccccc3C2=O)C1(C)C | -0.351
C=C1N2CCC(CC2)C1(O)c1ccc(C)cc1 (configuration not stated) | -0.123
O=C(c1ccco1)C12CN3CN(CN(C3)C1)C2 | -1.11
Cc1nn(C)c(C)c1P(=S)(c1c(C)nn(C)c1C)N(C)C | 1.1
CC1(C)C2([N+](=O)[O-])CNCC1([N+](=O)[O-])CNC2 | -0.698
CN(CCCCC(=O)/C=N/O)Cc1ccccc1 (tested in a mixture with another compound) | -0.317
Cc1ccc(-c2nc(N(C)C3CCN(C)CC3)c3ccccc3n2)cc1 | 2.91
CC(Cc1ccccc1)[n+]1cc(/N=C(\[O-])N(C)C)on1 (configuration not stated) | 0.239
CC(=O)O[C@]1(c2ccccc2)CCN(C)[C@H]2CCCC[C@@H]21 | 0.237
CN(C)C1(c2nnnn2CCOC(=O)Nc2ccc(Cl)cc2)CCCCC1 | -0.443
Cc1ccc2c(c1)CC1(CN2C)C(=O)NC(=O)N(CCC2=CCCCC2)C1=O (configuration not stated) | 0.712
CCCCC(=O)N/N=C/c1c(O)n(C2CC2)c(=S)[nH]c1=O | 0.0285
CCN1CC=C(c2c[nH]c3ccccc23)CC1 | 2.05
Cc1c(/C=C2/CC3C4CC=C5CC(O)CCC5(C)C4CCC3(C)C2=O)cnn1C (configuration not stated) | 1.02
COc1ccccc1N1CCN(Cc2ccc(Cl)cc2Cl)CC1 | -0.166
c1cncc(CNC2=NCCCCC2)c1 | -0.113
FC(F)(F)c1cccc(-n2nnnc2C2(N3CCOCC3)CCCCC2)c1 | -0.203
O=C(O)C(Cc1cnc[nH]1)NS(=O)(=O)c1ccc(Cl)cc1 (configuration not stated) | 0.184
CC12CN3CC(C)(CN(C1)C3c1cccs1)C2O (configuration not stated) | 0.438
O=C1NC(=O)C2(Cc3ccccc3N3CCCC32)C(=O)N1 (configuration not stated) | -0.0197
